B1: PhoQ; a variant is named by its letters at X, in order, P23837 (parent)
chain: MKKLLRLFFPLSLRVRFLLATAAVVLVLSLAYGMVALIGYSVSFDKTTFRLLRGESNLFYTLAKWENNKLHVELPENIDKQSPTMTLIYDENGQLLWAQRDVPWLMKMIQPDWLKSNGFHEIEADVNDTSLLLSGDHSIQQQLQEVREDDDDAEMTHSVAVNVYPATSRMPKLTIVVVDTIPVELKSSYMVWSWFIYVLSANLLLVIPLLWVAAWWSLRPIEALAKEVRELEEHNRELLNPATTRELTSLVRNLNRLLKSERERYDKYRTTLTDLTHSLKTPLXXLQXXLRSLRSEKMSVSDAEPVMLEQISRISQQIGYYLHRASMRGGTLLSRELHPVAPLLDNLTSALNKVYQRKGVNISLDISPEISFVGEQNDFVEVMGNVLDNACKYCLEFVEISARQTDEHLYIVVEDDGPGIPLSKREVIFDRGQRVDTLRPGQGVGLAVAREITEQYEGKIVAGESMLGGARMEVIFGRQHSAPKDE

The other results are listed elsewhere or left out.

The assay covers variants of B1. Nature of the assay: enrichment ratio after two sorts for PhoP signalling (ratio (wild type AVST 3.29)); higher = more functional. The note with it: with PhoP (E. coli).
Consider KYYG, for which the enrichment ratio was not above 0.25.
The figure for VWNM is not above 0.25.
Then VSEE, with not above 0.25.
Turning to MNEA, the enrichment ratio is not above 0.25.
In the case of QAVL, the enrichment ratio was not above 0.25.
The figure for MHFP is not above 0.25; for GHIR it is not above 0.25; for CLSM it is 22.7.
The figure for DAYD is not above 0.25; for QALG it is 1.89; for GDTQ it is not above 0.25.
Then EFRM, with not above 0.25; and PVST, with not above 0.25; and PINW, with not above 0.25.
Turning to GVSM, the enrichment ratio worked out at 0.841.
The figure for RVWR is not above 0.25.
Then TMLE, with 2.87; and FDTT, with not above 0.25; and LQWG, with not above 0.25.
Then ADTL, with not above 0.25.
Take ACMG: the enrichment ratio came to 14.3.
Then VDYW, with not above 0.25; and WIHC, with not above 0.25; and MFIG, with not above 0.25.
For the variant IAWL, the enrichment ratio was not above 0.25.
Then DQIW, with not above 0.25; and YIHK, with not above 0.25.
Consider LMPQ, for which the enrichment ratio was not above 0.25.
The figure for VEAH is not above 0.25; for KHKP it is not above 0.25.
The figure for DPLR is not above 0.25; for EHWG it is not above 0.25.
Then NCTK, with not above 0.25.
On to MLAQ, for which the enrichment ratio was not above 0.25.
Then EKTD, with not above 0.25; and DCFR, with 0.69; and SIHD, with not above 0.25.
The figure for GICT is 7.19; for GCCY it is not above 0.25; for KLAY it is not above 0.25.
For QFIN, the enrichment ratio was not above 0.25.
The figure for TKEE is not above 0.25; for WEGW it is not above 0.25; for FKCP it is not above 0.25.
The figure for ISVH is not above 0.25; for TMMA it is 1.02.
Regarding ETFL, the enrichment ratio was not above 0.25.
Then TGLM, with 26.9; and YAKP, with not above 0.25; and YFDC, with not above 0.25.
The figure for KYHP is not above 0.25; for PKVR it is not above 0.25.
Take SRVW: the enrichment ratio was not above 0.25.
The figure for TKPD is not above 0.25; for FEKR it is not above 0.25.
The figure for KIAS is not above 0.25; for KYHY it is not above 0.25.
Then LRKM, with not above 0.25; and GSPP, with not above 0.25; and YYCC, with not above 0.25.
Regarding NGRV, the enrichment ratio is not above 0.25.
The figure for EQPC is not above 0.25; for MMCY it is not above 0.25.
Then TSAN, with 9.44.
As to MNLY, the enrichment ratio is not above 0.25.
Regarding AGDI, the enrichment ratio was not above 0.25.
The figure for PTDT is not above 0.25; for LVTY it is not above 0.25; for SAEQ it is not above 0.25.
The figure for YHPE is not above 0.25; for HNLD it is not above 0.25.
As to WAWQ, the enrichment ratio was not above 0.25.
The figure for HVFI is not above 0.25; for GQGS it is not above 0.25; for NLYR it is not above 0.25.
In the case of DESN, the enrichment ratio was not above 0.25.
Then RNES, with not above 0.25; and PCRQ, with not above 0.25.
The figure for RQNE is not above 0.25.
Then INDK, with not above 0.25; and NFGA, with not above 0.25; and VGFD, with not above 0.25.
For the variant TTAW, the enrichment ratio worked out at 5.53.
The figure for ECHH is not above 0.25; for QAYK it is not above 0.25.
The figure for SIKF is not above 0.25; for MSDE it is not above 0.25.
Then NLRP, with not above 0.25; and RLPV, with not above 0.25.
As for RMSI, the enrichment ratio was not above 0.25.
Then LCDY, with not above 0.25.
The figure for FVNL is not above 0.25.
Then EIQW, with not above 0.25; and DSCE, with not above 0.25; and QQYG, with not above 0.25.
As to EYVK, the enrichment ratio is not above 0.25.
The figure for KSEW is not above 0.25; for EAVI it is not above 0.25; for LVCA it is not above 0.25.
Then LPLP, with not above 0.25; and DYSF, with not above 0.25; and QNHA, with not above 0.25.
The figure for WKTG is not above 0.25.
Turning to PGAP, the enrichment ratio was not above 0.25.
Then IRRC, with not above 0.25.
Take GAKN: the enrichment ratio is not above 0.25.
Regarding KHMA, the enrichment ratio is not above 0.25.
The figure for QMES is not above 0.25; for FPYN it is not above 0.25; for VCRE it is not above 0.25.
Then NTNE, with not above 0.25; and AVRP, with not above 0.25; and PAPT, with not above 0.25.
The figure for LEIP is not above 0.25.
For QQTR, the enrichment ratio was not above 0.25.
Then LSTM, with not above 0.25.
Then HAMV, with not above 0.25.
The figure for TLLY is not above 0.25; for YNTG it is 0.356; for HMSN it is not above 0.25.
As to SAPP, the enrichment ratio is not above 0.25.
Then AHNF, with 9.49.
DAMM: the enrichment ratio was not above 0.25.
Then NLSD, with not above 0.25; and QGVD, with not above 0.25.
The figure for VSVM is 1.27; for MKES it is not above 0.25; for THHH it is not above 0.25.
Then WRGN, with not above 0.25.
TYTI: the enrichment ratio amounted to 0.291.
Then KYIF, with not above 0.25.
Then DNDF, with not above 0.25; and IKDQ, with not above 0.25; and ATTG, with 12.
Then KAVQ, with not above 0.25.
With YGAE, the enrichment ratio is not above 0.25.
As to RCWR, the enrichment ratio is not above 0.25.
In the case of YTGP, the enrichment ratio came out at 0.281.
With ANSP, the enrichment ratio is not above 0.25.
For the variant LIVC, the enrichment ratio was not above 0.25.
In the case of SCYK, the enrichment ratio was not above 0.25.
The figure for SVMR is 12.6.
The figure for YPKK is not above 0.25.
The figure for KYLK is not above 0.25; for DSTM it is not above 0.25; for FKFP it is not above 0.25.
As to KDWM, the enrichment ratio is not above 0.25.
Then VVRH, with not above 0.25; and WFAY, with not above 0.25; and APLF, with not above 0.25.
The figure for YSLT is 4.38; for PDFS it is not above 0.25; for EGTD it is not above 0.25.

The record behind these values is a collection of fitness landscapes (doi:10.1126/science.1257360).
